Measurements from PMC4336329 (PLoS ONE, 2015).
The campaign covered roughly 310,000 compounds. About 14,000 (4.5%) showed an effect of 50% or more. The effect is printed as a negative number. The list shows a part of the results.

What follows are compounds tested against human ether-à-go-go-related gene (hERG) potassium channel (human, UniProt Q12809) (assay: primary screen, population patch clamp on CHO cells stably expressing hERG).
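Also: peak tail current of the secondary pulse compared with the same well before compound.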

Sequence of human ether-à-go-go-related gene (hERG) potassium channel (Q12809 whole entry, looked up): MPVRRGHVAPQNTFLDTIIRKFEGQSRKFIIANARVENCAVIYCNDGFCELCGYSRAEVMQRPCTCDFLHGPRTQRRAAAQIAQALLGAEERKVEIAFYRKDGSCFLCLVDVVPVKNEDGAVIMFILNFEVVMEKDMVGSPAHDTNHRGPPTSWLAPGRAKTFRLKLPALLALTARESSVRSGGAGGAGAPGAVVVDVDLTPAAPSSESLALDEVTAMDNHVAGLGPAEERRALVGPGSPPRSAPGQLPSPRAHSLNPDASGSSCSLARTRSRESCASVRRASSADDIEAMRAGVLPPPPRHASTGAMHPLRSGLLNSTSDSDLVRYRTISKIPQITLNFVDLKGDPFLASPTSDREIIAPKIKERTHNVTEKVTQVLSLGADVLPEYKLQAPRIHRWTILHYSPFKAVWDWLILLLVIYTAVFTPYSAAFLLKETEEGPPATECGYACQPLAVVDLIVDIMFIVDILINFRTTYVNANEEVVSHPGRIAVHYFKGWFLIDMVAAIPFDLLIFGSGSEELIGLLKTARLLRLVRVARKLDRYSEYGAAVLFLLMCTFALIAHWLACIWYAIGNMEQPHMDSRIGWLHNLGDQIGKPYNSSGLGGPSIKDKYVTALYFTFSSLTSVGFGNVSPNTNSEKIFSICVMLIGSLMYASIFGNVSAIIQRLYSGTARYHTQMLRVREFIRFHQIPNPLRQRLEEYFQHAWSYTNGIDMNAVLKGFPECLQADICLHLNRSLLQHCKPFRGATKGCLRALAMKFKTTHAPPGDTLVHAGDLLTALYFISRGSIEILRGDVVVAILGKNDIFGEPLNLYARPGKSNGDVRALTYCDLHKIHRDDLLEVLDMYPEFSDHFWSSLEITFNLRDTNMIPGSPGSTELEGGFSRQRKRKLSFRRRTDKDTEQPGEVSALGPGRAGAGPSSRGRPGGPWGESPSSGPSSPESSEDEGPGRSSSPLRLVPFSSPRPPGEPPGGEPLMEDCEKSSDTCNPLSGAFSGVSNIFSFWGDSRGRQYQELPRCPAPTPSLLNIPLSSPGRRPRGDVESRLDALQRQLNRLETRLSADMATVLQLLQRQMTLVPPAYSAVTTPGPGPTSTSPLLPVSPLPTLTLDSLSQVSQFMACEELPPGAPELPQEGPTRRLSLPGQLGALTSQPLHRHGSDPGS

| Compound | hERG current change (%, negative = inhibition) at 10uM |
| --- | --- |
| Cc1nc2ccc(NC(=S)N3CCCC3)cc2nc1C | 10.4% |
| CCN(CC)C(C(=O)Nc1ccc2c(c1)OCO2)c1ccccc1 (centres unmarked) | -24.3% |
| CCOC(=O)c1cccc(NC(=O)Cn2cc3c(n2)CCC(C)C3)c1 (centres unmarked) | 10.1% |
| COCCN(Cc1ccccc1)C(=O)c1cc(S(=O)(=O)N2CCCCCC2)ccc1OC | -18.8% |
| Cc1nnc(SCC(=O)Nc2ccc(N(C)C)cc2)n(N)c1=O | 25.2% |
| CCN(CC)S(=O)(=O)c1ccc(N2CCOCC2)c(NS(=O)(=O)c2cc(C(C)(C)C)ccc2C)c1 | 1.08% |
| CCCN(CCC)C(=O)C(CCC(=O)O)NC(=O)c1ccccc1 (centres unmarked) | -27.2% |
| CC(=O)NC(CCS(C)(=O)=O)C(=O)Nc1ccccc1Cl (centres unmarked) | 7.81% |
| C#CCOCCOCCOCCNc1nc(N2CCN(C(=O)[C@H](CCC(=O)O)n3cc(C(N)[C@H](C)CC)nn3)CC2)nc(N2CCN(C(=O)[C@H](Cc3ccc(O)cc3)n3cc(C(N)[C@H](C)CC)nn3)CC2)n1.Cl (some centres unmarked) | 7.62% |
| Cc1cc([N+](=O)[O-])ccc1NC(=S)NC(=O)C(c1ccccc1)c1ccccc1 | -1.1% |
| COc1ccc(NC(=O)c2sc(N)nc2-c2ccccc2)cc1 | -1.72% |
| CCOc1ccccc1-c1nc2c([nH]1)c(=O)n(C)c(=O)n2C | -10.5% |
| CCOc1cccc(C2/C(=C(/O)c3ccc4c(c3)CC(C)O4)C(=O)C(=O)N2Cc2ccncc2)c1 (centres unmarked) | 9.67% |
| O=C(Cc1ccc(S(=O)(=O)N2CCCCC2)s1)Nc1cccc2ccccc12 | 10.8% |
| CCCOc1ccc(-c2c(C(=O)N/N=C/c3ccccc3)nnn2-c2nonc2N)cc1 | 4.98% |
| C/C(=N/NC(=S)Nc1ccccc1)c1ccc2c(c1)OCO2 | 15.4% |
| O=C(O)Cc1csc(-c2ccccc2)n1 | 14.4% |
| Oc1c(C=Nc2cccc3cccnc23)sc2ccccc12 | 11.8% |
| COc1cccc(/C=C2\SC(=S)N(N3CCOCC3)C2=O)c1OC | -0.973% |
| Cc1ccccc1N(CC(=O)NC1CCCCC1)C(=O)CCC(=O)Nc1nccs1 | -8.14% |
| O=[N+]([O-])c1ccc(O)c(C=Nc2cccc3ccccc23)c1 | 2.26% |
| COc1cccc(-c2cc3nc4c(c(N5CCC6(CC5)OCCO6)n3n2)CCC4)c1 | 4.96% |

| Compound | hERG current change (%, negative = inhibition) at 10uM |
| --- | --- |
| CS(=O)(=O)N(CC(=O)N1CCN(c2cccc(Cl)c2)CC1)c1cccc(F)c1 | -33.8% |
| COC(=O)c1ccc(NC(=O)CN2CCN(c3ccccc3)CC2)cc1 | -23.5% |
| Cc1cc(C)n(CC(=O)n2c(C)c(C)c3ccccc32)n1 | 3.04% |
| Cc1cccc(NS(=O)(=O)c2cccc3nsnc23)c1 | -5.25% |
| CC(C)[C@H](NC(=O)c1c(F)cccc1F)C(=O)Nc1cccc(Br)c1 | 7.41% |
| COc1ccc(-c2noc(CSc3nc(N)c(-c4ccccc4)c(=O)[nH]3)n2)cc1OC | 9.94% |
| C#CC[N+](C)(C)CCCCCCCC.[Br-] | -15.9% |
| Cc1nn(CC(=O)NCCc2cccs2)c(=O)c2cc3ccccc3n12 | 18.9% |
| COc1ccc(Oc2nccc(OC)c2C#N)cc1 | -0.188% |
| COc1ccc(C(=O)OCC(N)=O)cc1[N+](=O)[O-] | -25.1% |
| O=c1cc(CO)occ1OCc1cccc(C(F)(F)F)c1 | -4.65% |
| Cc1ccnc(NC(=O)c2ccc(Cl)c(S(=O)(=O)N3CCCC3)c2)c1 | -15.7% |
| O=C(OCC(=O)c1cccs1)c1ccccc1 | -5.06% |
| CCC(Oc1ccccc1)C(=O)N1CCN(C(=O)C(CC)Oc2ccccc2)CC1 (centres unmarked) | -33.5% |
| O=C(CCNC(=O)C1CCN(S(=O)(=O)c2ccccc2)CC1)NCc1ccc(Cl)cc1Cl | -45.1% |
| CCCc1ccc2oc(C(=O)NCCN3CCCC(C(N)=O)C3)c(C)c2c1 (centres unmarked) | -48.8% |
| CCCCc1nc2ccccc2c(=O)n1NC(=O)c1c(O)c2ccccc2n(C)c1=O | 7.59% |
| CNC(=O)c1csc(-c2ccccc2)n1 | 0.516% |
| Cc1ccc(C(=O)NCc2n[nH]c(=S)n2-c2ccccc2)cc1[N+](=O)[O-] | 7.76% |
| COc1cccc(-c2cc(C(=O)Nn3cnnc3)c3ccccc3n2)c1 | 3.11% |
| Cc1ccc(-n2c(SCC(=O)N3CCOCC3)nnc2-c2ccncc2)cc1C | -10.6% |
| CC(/C=N/Nc1nncc(=O)[nH]1)=C\c1ccccc1 | 3.08% |

| Compound | hERG current change (%, negative = inhibition) at 10uM |
| --- | --- |
| Cc1ccc(S(=O)(=O)N(C)c2c(C)ccc(S(=O)(=O)Nc3ccncc3)c2C)cc1 | 7.82% |
| COc1ccc(N2CCN(S(=O)(=O)CCNC(=O)COc3ccccc3C)CC2)cc1 | 1.17% |
| CCOc1ccc(/C=C2\SC(=S)N(NC(=O)c3ccncc3)C2=O)cc1OC | 16.9% |
| Cn1c(N)c(C(=O)COC(=O)c2ccc([N+](=O)[O-])o2)c(=O)n(C)c1=O | -34.6% |
| CCCCCOC(=O)CSc1nc2c(c(=O)[nH]c(=O)n2C)n1Cc1ccc(Cl)cc1 | -11.8% |
| CC1CN=C(N(Cc2ccccc2)C(=O)Nc2ccccc2)S1 (centres unmarked) | 17.4% |
| CC(C)(C)NC(=O)CSc1nnc(-c2ccccc2)c(-c2ccccc2)n1 | -8.75% |
| CCOCCCn1c(=O)c2ccccc2n2c(=S)[nH]nc12 | 19.8% |
| COC(=O)C1=C(c2ccccc2)C[C@@H]2CC[C@H]1N2C(=O)NCCCOC(C)C | 0.331% |
| O=C(NC1CCCN(CCc2ccccc2)C1)c1c(F)cccc1F (centres unmarked) | -46.2% |
| CC1(C)CC(=O)C=C(c2cccc(Cl)c2O)C1 | -0.159% |
| COc1ccc(CC(=O)c2c(O)cc(O)cc2O)cc1OC | 7.54% |
| CC(=O)N1c2ccc(S(=O)(=O)N3CCC(C(=O)Nc4ncccc4C)CC3)cc2CC1C (centres unmarked) | 7.62% |
| CC(C)CNC(=O)NC(=O)COC(=O)c1cc(F)cc(F)c1 | -4.56% |
| CCCCNCc1ccc(SC)cc1.Cl | -22% |
| CN(C)c1ccc(CNC(=O)C2CCC(CNc3c(N4CCCCC4)c(=O)c3=O)CC2)cc1 (centres unmarked) | 15.7% |
| COc1ccc(C(=O)NC(=S)N2CCNC(=O)C2CC(=O)OC(C)C)cc1 (centres unmarked) | 11.4% |
| CC1CCCC(C)N1C(=O)c1ccc2c(c1)S(=O)(=O)c1ccccc1C2=O (centres unmarked) | -10.4% |
| Cc1c(Cl)cccc1NC(=S)NCCc1ccc(F)cc1 | 15.8% |
| COC(=O)c1nnn(CC(=O)NC(=O)Nc2ccccc2F)c1C(=O)OC | 7.82% |
| CCCCCCC(=O)N1CCN(c2cc3c(cc2F)c(=O)c(C(=O)O)cn3CC)CC1 | -18% |
| COCCCNC(=O)C1CC(=O)N(C2CCCC2)C1 (centres unmarked) | 11.6% |

| Compound | hERG current change (%, negative = inhibition) at 10uM |
| --- | --- |
| O=C(N/N=C/c1c(O)n(C2CC2)c(=S)[nH]c1=O)c1ccccc1 | 32.2% |
| CN(C)/N=C/C=C1\CC/C(=C\c2ccc(Br)cc2)C1=O | 8.94% |
| O=C1OCCN1c1c(-c2ccccc2)c(-c2cccs2)nc2c(-c3ccccc3)cccc12 | 7.82% |
| Cc1cc(C)c(C#N)c(SCC(=O)NN2CC(=O)N(c3ccccc3F)CC2=O)n1 | 4.43% |
| Cc1ccc(N2NC(=O)/C(=C/C=C/c3ccco3)C2=O)cc1C | 14.9% |
| O=C(C1CCN(S(=O)(=O)c2c(Cl)cccc2Cl)CC1)N1CCCCCCC1 | -10.9% |
| CC(=O)OC(COC1C[C@@H]2CC[C@@]1(C)C2(C)C)C[N+]1(C)CCCCC1.[I-] (some centres unmarked) | 12.5% |
| COCCCN1C(=O)C(=O)/C(=C(/O)c2ccccc2)C1c1ccc2c(c1)OCO2 (centres unmarked) | 11.4% |
| O=C(Nc1ccc(C(=O)O)cc1)/C(=C\C=C\c1ccccc1)NC(=O)c1ccc(Br)cc1 | 3.91% |
| Cc1[nH]nc2c1C(c1cccs1)C(C#N)=C(N)O2 (centres unmarked) | 5.07% |
| O=C(O)c1ccccc1C(=O)c1ccc2c(c1)CCC2 | 22.3% |
| CCOc1ccc(CCN2C(=O)c3ccc(C(=O)O)cc3C2=O)cc1OCC | -3.15% |
| CN1C(=O)c2ccccc2C(C(=O)NCc2ccco2)C1c1c[nH]c2ccccc12 (centres unmarked) | -12.2% |
| CNc1nc(NN)nc(Nc2ccccc2)n1 | 9.76% |
| Cc1cc(C)c2nc(SCC(=O)NCCC3=CCCCC3)cc(C)c2c1 | 9.92% |
| CCN(CC)c1ccc(NC(=O)CSc2nc(C)cc(=O)[nH]2)cc1 | 7.77% |
| CCCCC(CC)C(=O)NCCCN1CCN(CCCNC(=O)C(CC)CCCC)CC1 (centres unmarked) | -18.3% |
| COc1ccc(NC(=S)N2CCN(S(=O)(=O)c3ccccc3)CC2)cc1OC | 0.832% |
| CC(C)C(OC(=O)c1ccco1)C(=O)NCc1ccc2c(c1)OCO2 (centres unmarked) | -15.3% |
| Cc1cccc(-n2c(C)nc3c(cnn3-c3ccc(F)cc3)c2=O)c1 | -12.6% |
